# Laboratory results from the supplement of paper PMC8728848.
# Some of the results follow.
# B1: Blon2468mut (Bifidobacterium longum) (protein)
# chain: MTFIKQMMPRYVASMTAGIVAAAMAATCAFAPVANADAVSPTQETIQSTGRHFMVYYRAWRDVTMKGVNTDLPDDNWISMYDIPYGVDVVNIFSYVPSGQEEQAQPFYDKLKSDYAPYLHSRGIKLVRGIDYTGVAVNGFRTFMKEQNKTESEATEADYDAYAKQVIDKYMISVGLDGLDIDMQAHPNDADVKISDNVIRALSKHIGPKSAKPDTTMFLYDTNGSYLNPFKNVAECFDYVAYQQYGSSSDRTARAAADYQPYIGNEFVPGLTFPEEGDMNNRWYDATEPYEESHFYQVASYVREHNLGGMFVYALDRDGRNYDEDLRRIVPSNLLWTKTAIAESEGMALDTAKTAANHYLDRMSLRQVIDDNAASADKARDMVGKAANLYETNKAVLGGDYGEGFSNTYDPTLEAGLLGIDISVLQQQIDKSSEIIGADTAESDAKTALRMARDAAIDGLTGKIYTADQVSAWSQALKAALDATVPVPTPDSTDQNGNRDKVTNHKVQGQPKQLSATGISTDIIVAVGVTLAIAGVALSLSRKLS
# Experiments:
# Experiment in all cases: glycan array binding signal (z-score within array); higher = stronger binding
# Settings in all cases: glycan notation: IUPAC condensed, linker removed
# [1] = target: Fuc(a1-2)Gal(b1-4)GlcNAc(b1-3)Gal(b1-4)GlcNAc(b1-3)Gal(b1-4)GlcNAc
# Procedure, shortened: (§1)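 Negative Z-scores can be read as non-binding. The Z-score is calculated within each array and then averaged across arrays of one protein sequence at different concentrations or buffers and across linkers. Arrays, 3228 in all, were curated from the Consortium for Functional Glycomics database and kept only where the protein sequence was available.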
# [2] = target: Fuc(a1-2)Gal(b1-4)GlcNAc(b1-3)GalNAc
# Procedure, shortened: as §1
# [3] = target: Fuc(a1-2)Gal(b1-4)GlcNAc(b1-3)[Fuc(a1-2)Gal(b1-4)GlcNAc(b1-6)]GalNAc
# Procedure, shortened: as §1
# [4] = target: Fuc(a1-2)Gal(b1-4)GlcNAc(b1-3)[Fuc(a1-3)[Gal(b1-4)]GlcNAc(b1-6)]Gal(b1-4)Glc
# Procedure, shortened: as §1
# [5] = target: Fuc(a1-2)Gal(b1-4)GlcNAc(b1-6)GalNAc
# Procedure, shortened: as §1
# [6] = target: Fuc(a1-2)Gal(b1-4)GlcNAc6S
# Procedure, shortened: as §1
# [7] = target: Fuc(a1-2)Gal(b1-4)[Fuc(a1-3)]GlcNAc
# Procedure, shortened: as §1
# [8] = target: Fuc(a1-2)Gal(b1-4)[Fuc(a1-3)]GlcNAc(b1-2)Man(a1-3)[Fuc(a1-2)Gal(b1-4)[Fuc(a1-3)]GlcNAc(b1-2)Man(a1-6)]Man(b1-4)GlcNAc(b1-4)[Fuc(a1-6)]GlcNAc
# Procedure, shortened: as §1
# [9] = target: Fuc(a1-2)Gal(b1-4)[Fuc(a1-3)]GlcNAc(b1-2)[Fuc(a1-2)Gal(b1-4)[Fuc(a1-3)]GlcNAc(b1-4)]Man(a1-3)[Fuc(a1-2)Gal(b1-4)[Fuc(a1-3)]GlcNAc(b1-2)Man(a1-6)]Man(b1-4)GlcNAc(b1-4)GlcNAc
# Procedure, shortened: as §1
# [10] = target: Fuc(a1-2)Gal(b1-4)[Fuc(a1-3)]GlcNAc(b1-3)Gal(b1-4)[Fuc(a1-3)]GlcNAc
# Procedure, shortened: as §1
# [11] = target: Fuc(a1-2)Gal(b1-4)[Fuc(a1-3)]GlcNAc(b1-3)Gal(b1-4)[Fuc(a1-3)]GlcNAc(b1-3)Gal(b1-4)[Fuc(a1-3)]GlcNAc
# Procedure, shortened: as §1
# [12] = target: Fuc(a1-2)Gal(b1-4)[Fuc(a1-3)]GlcNAc(b1-3)GalNAc
# Procedure, shortened: as §1
# [13] = target: Fuc(a1-2)Gal(b1-4)[Fuc(a1-3)]GlcNAc(b1-3)[Neu5Ac(a2-6)Gal(b1-4)GlcNAc(b1-6)]Gal(b1-4)Glc
# Procedure, shortened: as §1
# [14] = target: Fuc(a1-2)Gal3S(b1-4)GlcNAc
# Procedure, shortened: as §1
# [15] = target: Fuc(a1-2)Gal6S(b1-3)GlcNAc
# Procedure, shortened: as §1
# [16] = target: Fuc(a1-2)Gal6S(b1-3)GlcNAc6S
# Procedure, shortened: as §1
# [17] = target: Fuc(a1-2)Gal6S(b1-4)Glc
# Procedure, shortened: as §1
# [18] = target: Fuc(a1-2)Gal6S(b1-4)Glc6S
# Procedure, shortened: as §1
# [19] = target: Fuc(a1-2)[Gal(a1-3)]Gal
# Procedure, shortened: as §1
# [20] = target: Fuc(a1-2)[Gal(a1-3)]Gal(b1-3)GalNAc
# Procedure, shortened: as §1
# [21] = target: Fuc(a1-2)[Gal(a1-3)]Gal(b1-3)GalNAc(b1-3)Gal(a1-4)Gal(b1-4)Glc
# Procedure, shortened: as §1
# [22] = target: Fuc(a1-2)[Gal(a1-3)]Gal(b1-3)GlcNAc
# Procedure, shortened: as §1
# [23] = target: Fuc(a1-2)[Gal(a1-3)]Gal(b1-3)GlcNAc(b1-2)Man(a1-3)[Fuc(a1-2)[Gal(a1-3)]Gal(b1-3)GlcNAc(b1-2)Man(a1-6)]Man(b1-4)GlcNAc(b1-4)GlcNAc
# Procedure, shortened: as §1
# [24] = target: Fuc(a1-2)[Gal(a1-3)]Gal(b1-3)GlcNAc(b1-2)Man(a1-3)[Fuc(a1-2)[Gal(a1-3)]Gal(b1-3)GlcNAc(b1-2)Man(a1-6)]Man(b1-4)GlcNAc(b1-4)[Fuc(a1-6)]GlcNAc
# Procedure, shortened: as §1
# [25] = target: Fuc(a1-2)[Gal(a1-3)]Gal(b1-3)GlcNAc(b1-3)GalNAc
# Procedure, shortened: as §1
# [26] = target: Fuc(a1-2)[Gal(a1-3)]Gal(b1-3)GlcNAc(b1-6)GalNAc
# Procedure, shortened: as §1
# [27] = target: Fuc(a1-2)[Gal(a1-3)]Gal(b1-4)Glc
# Procedure, shortened: as §1
# [28] = target: Fuc(a1-2)[Gal(a1-3)]Gal(b1-4)GlcNAc
# Procedure, shortened: as §1
# [29] = target: Fuc(a1-2)[Gal(a1-3)]Gal(b1-4)GlcNAc(b1-2)Man
# Procedure, shortened: as §1
# [30] = target: Fuc(a1-2)[Gal(a1-3)]Gal(b1-4)GlcNAc(b1-2)Man(a1-3)[Fuc(a1-2)[Gal(a1-3)]Gal(b1-4)GlcNAc(b1-2)Man(a1-6)]Man(b1-4)GlcNAc(b1-4)GlcNAc
# Procedure, shortened: as §1
binder,measurement,setting,value
B1,glycan array binding signal (z-score),[1],-0.043
same,glycan array binding signal (z-score),[2],-0.034
same,glycan array binding signal (z-score),[3],-0.08
same,glycan array binding signal (z-score),[4],-0.086
same,glycan array binding signal (z-score),[5],-0.025
same,glycan array binding signal (z-score),[6],-0.08
same,glycan array binding signal (z-score),[7],-0.065
same,glycan array binding signal (z-score),[8],-0.014
same,glycan array binding signal (z-score),[9],-0.036
same,glycan array binding signal (z-score),[10],-0.051
same,glycan array binding signal (z-score),[11],-0.079
same,glycan array binding signal (z-score),[12],-0.029
same,glycan array binding signal (z-score),[13],-0.082
same,glycan array binding signal (z-score),[14],-0.049
same,glycan array binding signal (z-score),[15],-0.018
same,glycan array binding signal (z-score),[16],0.078
same,glycan array binding signal (z-score),[17],-0.041
same,glycan array binding signal (z-score),[18],-0.073
same,glycan array binding signal (z-score),[19],-0.015
same,glycan array binding signal (z-score),[20],-0.076
same,glycan array binding signal (z-score),[21],-0.048
same,glycan array binding signal (z-score),[22],-0.06
same,glycan array binding signal (z-score),[23],-0.079
same,glycan array binding signal (z-score),[24],-0.055
same,glycan array binding signal (z-score),[25],-0.085
same,glycan array binding signal (z-score),[26],-0.055
same,glycan array binding signal (z-score),[27],-0.073
same,glycan array binding signal (z-score),[28],-0.08
same,glycan array binding signal (z-score),[29],-0.028
same,glycan array binding signal (z-score),[30],-0.015
